Measured values taken from the supplement of paper PMC11417369.
± gives the standard deviation of the averaged measurements. Some of the results follow.

test system: PfAP2-I AP2 domain 3 (GST-tagged); assay: gcPBM binding intensity (ln(normalized median fluorescence intensity)); higher = stronger DNA binding
Outline: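 GST-tagged P. falciparum DNA-binding domains, expressed in E. coli (about 25 μg on average), were applied for 1 h to an Agilent 4 × 180k array of primer-extended double-stranded 36-bp intergenic genomic probes plus negative controls. The binding buffer was 1× PBS with 1% milk, 0.2 mg/ml BSA, 0.5% salmon testes DNA and 0.03% Triton X-100. Bound protein was detected with Alexa488 anti-GST antibody and scanned at 488 nm. Binding intensity is the highest Masliner-normalised natural-log median intensity across replicate spots of either probe orientation.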

Sequence	gcPBM binding intensity (ln)
TCGATATATAGACACACACACTTTTAATAATTAAAT [CACACA_site7726]	8.01 ± 0.34
TTATGCAGATAAAAGAGTACATATTCGTTACATACA [XGTACX_site2849]	7.92 ± 0.42
ATATAAATATAGTGTGCACACACATAATATATATAT [CACACA_site8713]	9.49 ± 0.11
TATATTTTAAAATTATGTACATATATAGATAAATGT [XGTACX_site1349]	7.96 ± 0.52
AAAATAAATTGTGAAGGTACACAAATTATTATGTGG [XGTACX_site4196]	7.64 ± 0.34
ATATATATATATAATACACACATCATAAAATATGTA [CACACA_site2518]	9.35 ± 0.3
TATCATCATGTATGTACACACATACAGATATTATGT [CACACA_site4888]	7.72 ± 0.27
AAATACAAAATTGTTACACACATATTAATTATGACA [CACACA_site476]	7.6 ± 0.49
AAAAAGAAAAAATATATTCGTCTATTATAAACAATA [CACACA_negctrl_site648]	7.22 ± 0.49
TAAATATTAACAATCGCACACATATTATTTTTCCAA [CACACA_site1626]	7.82 ± 0.5
GAATATATATTCATATGTACACAATTTATGTATTAT [XGTACX_site4719]	7.98 ± 0.33
AAGGTAAACAGACACACACACATACAAAAAAAAAAA [CACACA_site3768]	8.04 ± 0.47
AACACATACAGATATGCACACATTTTATTCCATTAT [CACACA_site5565]	8.93 ± 0.2
ATATATATATTATATGCACACTTATATTTCATTAGA [CACACA_site5439]	9.845 ± 0.049
TATTTATAAATGAACACACACGCAATTTGAATCGAA [CACACA_site3371]	8.04 ± 0.46
TTTTTATATTTCAACATATCACAATTTTATATATCT [CACACA_negctrl_site178]	7.79 ± 0.47
GAATATAAACCTATTACACACATCTATATGTACATT [CACACA_site1914]	7.96 ± 0.67
CTATATCATTTTCTAGCACACACATTGTTATTACCT [CACACA_site8204]	8.39 ± 0.81
ATTTTTTTTATTATTACACACATATAACAAAAAAAT [CACACA_site6934]	8.12 ± 0.4
TTTTTTATGCTAACTTCTTTTTCCTTATAAAATTGG [TGCATGCA_negctrl_site598]	7.81 ± 0.76
TGTAATTGTTTAAAGGGTACATATATCAGATGTCTT [XGTACX_site5877]	7.62 ± 0.54
TTTTGTTTTTGTAGAGTGCATAAAGAAGATATGTAT	11.1 ± 0.86
TGGAAACAATGACACACACACAAAAAAAAAAAAAAA [CACACA_site7494]	7.97 ± 0.56

Sequence	gcPBM binding intensity (ln)
GTAGGGGAAAAAAAAACACACAAAAAACAACAGATC [CACACA_site1187]	8.26 ± 0.67
TTATCTCTACAAAGTGCACACACGTAAAAACATATA [CACACA_site3957]	10.1 ± 0.34
ATAATAATATTTCTATGTACTTATTTTATGTATTAG [XGTACX_site1747]	7.79 ± 0.25
AAAAATTAAAATATAACTAATTAATTTGTATTCATT [CACACA_negctrl_site1633]	7.24 ± 0.52
TATAAATACTTAGAAACACACAAAAATATTTTATAA [CACACA_site7259]	7.55 ± 0.67
CATTATGTTGTAAATACACACATACAGATACATACA [CACACA_site4565]	7.88 ± 0.35
TAAAGGCAAACAAACACACACACATAAATACAGATA [CACACA_site5204]	7.85 ± 0.37
ATATGCGTTTGCAAATGTACATATTATTTATATATA [XGTACX_site7128]	7.96 ± 0.42
TTTTTTGGTTTTCATGCACACAATTTATAAATCTAT [CACACA_site3106]	9.12 ± 0.4
ATAATTCTTTTACTGTGTACATATTATCACTTATTT [XGTACX_site2456]	8.16 ± 0.73
ATATAATGGACCATAGTGCATAAAAATAACAAAAAA [GTGCAC_site9558]	10.71 ± 0.092
TTTTTATATTTTATAGTGCAAAAACTTACATAAAAT	10.2 ± 0.39
TATTTTTTTTCTTTATTTATAACGCTCAATATATTC [GTGCAC_negctrl_site265]	7.86 ± 0.54
TGGAAATATATATATATATATACATATATATATAGC [XGTACX_negctrl_site107]	7.89 ± 0.43
ATTTTATAACATTCATGTACACATTTCATTTATTTG [XGTACX_site3028]	7.91 ± 0.65
CATATAAATATATATACACACACACCGTAATACATA [CACACA_site9158]	7.89 ± 0.42
TTTTAATATTTTAAGAGTACAGAAATATATAATATG [XGTACX_site4955]	8.01 ± 0.4
AGAGACACTTTTTATTGTACAAGAGGAGGTTACCTT [XGTACX_site8768]	7.82 ± 0.6
TACGAAAAAAAAAAAAAAAAAAAAAAACACAAAAAA [CACACA_negctrl_site1643]	7.43 ± 0.64
AATACCATAATCAATGCACACATAACAAAATATTAT [CACACA_site8873]	9.72 ± 0.29
ACAGTATCAATATGGATAAAAATGTCCATATGCCTG [TGCATGCA_negctrl_site482]	7.19 ± 0.55
TATATAACATATAACACACATACTTAGTATTACATA [CACACA_site3099]	7.72 ± 0.32
